Data: ChEMBL document CHEMBL1156829
Values joined by “and” are separate entries in the source; they are usually repeats but may differ in a detail not shown here. Equal values may be shown once. Whole data set: some 5,400 compounds, median “IFI” near 2, cut for the highest 2% near 22. This is one part of the list.

Assay: NOVARTIS: Inhibition Frequency Index (IFI) - the number of HTS assays where a compound showed > 50% inhibition/induction, expressed as a percentage of the number of assays in which the compound was tested.
Type: functional
`O=C(Nc1ccc(-c2nc3cc(-c4nc5ccccc5o4)ccc3[nH]2)cc1)c1ccc([N+](=O)[O-])cc1` showed an IFI of 5.88%. In the case of `CN(C)c1ccc(/C=C2\N=C(c3ccccc3F)OC2=O)cc1`, the IFI is reported as 0%. In the case of `O=c1c(-c2ccc(Cl)cc2Cl)c(C(F)(F)F)oc2c(CN3CCCCC3)c(O)ccc12`, the IFI is reported as 1.22%. Compound `CCOC(=O)c1sc(=S)n(-c2ccc(N(C)C)cc2)c1N` has an IFI of 1.54%. `COC(C)(C)CNCc1cc2cc3c(cc2n(Cc2cccc(C(F)(F)F)c2)c1=O)CCC3` gave an IFI of 2.94%. For `O=C(c1cc2nc(-c3ccccc3)cc(C(F)(F)F)n2n1)N1CCN(Cc2ccccc2)CC1`, the IFI was 1.18%. In the case of `Oc1ccc(-c2ccc(F)cc2)cc1CNCCCn1ccnc1`, the IFI is reported as 0.99%. With `O=C(NC1CCN(CC(O)CN(Cc2ccccc2)S(=O)(=O)c2ccccc2)C1)c1ccccc1` (stereo unspecified) the IFI was 2.94%. `FC(F)(F)c1cccc(NC(=S)N2CCCC2c2ccccc2C(F)(F)F)c1` (stereo unspecified) showed an IFI of 1.82%. `CCOc1ccc(C(=O)Nc2cccc(-c3nc4cc(C)ccc4o3)c2C)cc1` gave an IFI of 0%. With `COC(=O)c1c(-c2c(Cl)cccc2Cl)noc1/C=C/Nc1ccc(Cl)cc1` the IFI was 5.33%. `CN(C)CCCNc1ccnc2cc(Cl)ccc12` gave an IFI of 0%. `OCCNc1nc(Nc2cccc(O)c2)nc2ccccc12` gave an IFI of 3.64%. With `Cc1ccc(C(C(=O)NC2CCCCC2)N(C(=O)c2ccc(-c3ccccc3)[nH]2)c2ccc(C3CCCCC3)cc2)o1` (stereo unspecified) the IFI was 3.7%. With `CCOC(=O)C1=C(C)NC2=C(C(=O)C(C(=O)OCC)C(c3cccc(OC)c3)C2)C1c1ccc(OC)c(OC)c1` (stereo unspecified) the IFI was 3.49%. `CCCCCN(C(=O)c1ccc(Br)cc1)C(CC)c1nc2ccccc2c(=O)n1-c1ccccc1OC` (stereo unspecified) showed an IFI of 2.88%. For `N=C(N)NN=Cc1cccc(OCc2ccc(Cl)c(Cl)c2)c1`, the IFI was 2.83%. `CC1(C)Oc2ccc(C(=O)N3CCCC3)cc2N(CCc2ccccc2)C1=O` gave an IFI of 0%. `CCCCCCCCNC(=O)C1CC1c1ccccc1` (stereo unspecified) showed an IFI of 1.82%. `COc1cc2nc(Nc3ccc(F)cc3)nc(N)c2cc1OC` showed an IFI of 0%. Work on `CCCCCC(=O)NCCCCCCNc1ccnc2cc(Cl)ccc12` yielded an IFI of 0%. In the case of `CC1(C)C2CCC(C2)C1(C)NC(=S)NN=Cc1ccccn1` (stereo unspecified), the IFI is reported as 26%. With `CCC(c1nc2ccccc2c(=O)n1CCOC)N1CCNCC1` (stereo unspecified) the IFI was 3.31%. For `Cc1ccccc1C[n+]1cc(-c2ccc(Cl)cc2)n2c1CCC2`, the IFI was 7.14%. With `CCn1cc(C(=O)NCCC2=CCCCC2)c(=O)c2cc(S(=O)(=O)N(C)C)ccc21` the IFI was 0%. `CCc1ccc2c(c1)c1nnc(SCC(=O)NCCOC)nc1n2C` showed an IFI of 0%. `Cc1cc(C)c2c(c1)OCN(Cc1ccccc1Cl)C2` gave an IFI of 3.33%. `COc1ccccc1CNC(=O)CN1C(=O)c2cccnc2Oc2ccccc21` showed an IFI of 0%. Work on `CCc1ccc(C(=O)C[n+]2cc(-c3ccc(C)cc3)n3c2CCC3)cc1` yielded an IFI of 9.52%. In the case of `CSc1nc(N)nc(SC2C=CCCC2)c1C#N` (stereo unspecified), the IFI is reported as 0%. Work on `COc1ccc(C2C(C(=O)c3ccc(C)cc3)=C(O)C(=O)N2CCN2CCOCC2)c(OC)c1` (stereo unspecified) yielded an IFI of 0%. `COc1ccc(CNC2CCN(c3cccc(NC(=O)C4CC4)c3)CC2)cc1` gave an IFI of 0%. `COc1ccc(C(NC(=O)COc2ccccc2)c2cc(Cl)c3cccnc3c2O)cc1` (stereo unspecified) showed an IFI of 15.4%. Work on `O=C1C2C(C(=O)N1c1ccc(Br)cc1)C1C=CC2C12CC2` (stereo unspecified) yielded an IFI of 0.935%. Work on `Nc1ccc2[nH]c(/C=C/c3ccc(Cl)cc3)nc2c1` yielded an IFI of 7.69%. `COc1ccc(C(=O)N2c3cc(C)ccc3C(Nc3ccc(C)cc3)CC2C)cc1` (stereo unspecified) gave an IFI of 0%. `Cc1ccc(S(=O)(=O)N(C)CCCNc2ccnc3cc(Cl)ccc23)cc1` showed an IFI of 9.68%. With `CC(=O)Nc1ccc2c(c1)C(=O)N(C(CC(C)(C)C)C(=O)NC1CCCCC1)[C@@H](CCC(=O)O)C(=O)N2` (stereo partly specified) the IFI was 1.22%. In the case of `CN(C)CCCNc1ncnc2c1[nH]c1ccc(Cl)cc12`, the IFI is reported as 11.8%. `O=C(C1CCN(c2nnnn2-c2ccccc2)CC1)N1CCc2ccccc2C1` showed an IFI of 0%. For `CCC(Oc1ccc(C(C)(C)CC)cc1C(C)(C)CC)C(=O)Nc1ccc(Cl)c([N+](=O)[O-])c1` (stereo unspecified), the IFI was 2.48%. With `O=C(COc1cccc(Br)c1)NN=Cc1ccccc1F` the IFI was 0%. `Cc1ccc2cc(C)c(Nc3ccc(Cl)cc3)nc2c1` gave an IFI of 4.54%. `Cc1ccc(C)n1-c1ccc(N(C)C)cc1` gave an IFI of 4.76%. `O=C(c1ccc(N2CC3CC(C2)c2cccc(=O)n2C3)c(NS(=O)(=O)c2ccc3c(c2)OCCO3)c1)N1CCN(c2ccccn2)CC1` (stereo unspecified) gave an IFI of 1.16%. For `COc1ccc(OC)c(-c2ccc(O)c(CNCCc3ccccc3F)c2)c1`, the IFI was 1.72%. In the case of `Cc1cn2c3ccccc3n(CCN3CCOCC3)c2n1`, the IFI is reported as 0%. Work on `Oc1ccccc1Nc1nc(-c2ccccc2O)nc2ccccc12` yielded an IFI of 0%. Compound `COCCN(Cc1cc2ccc(F)cc2nc1N1CCCCCC1)C(=O)c1ccoc1` has an IFI of 2.94%. Work on `O=C(NCC1CCCO1)c1cnc(NCCCn2ccnc2)nc1NCCc1ccccc1` (stereo unspecified) yielded an IFI of 0.952%. `Cc1ccc(N(C)C(=O)CCNS(=O)(=O)c2cc(Br)cnc2N)cc1` gave an IFI of 2.5%. In the case of `O=S(=O)(Nc1ccc(F)cc1)N1CCCCCC1`, the IFI is reported as 0%. Work on `Cn1cc(C(c2cccs2)c2cn(C)c3ccccc23)c2ccccc21` yielded an IFI of 17.5%. In the case of `CCOC(=O)c1c[nH]c2c(ccc3ccccc32)c1=O`, the IFI is reported as 0% and 1.59%. `CN(CCCNc1ccc(C(=O)Nc2ccc(C(F)(F)F)cc2)cc1[N+](=O)[O-])Cc1ccccc1` showed an IFI of 0%. Work on `CCN1/C(=C/c2sc3ccc(-c4ccccc4)cc3[n+]2CCO)C=Cc2ccccc21` yielded an IFI of 7.14%. With `COc1ccc(C2Nc3ccc(C(C)=O)cc3C3C=CCC32)cc1[N+](=O)[O-]` (stereo unspecified) the IFI was 0%. In the case of `Cc1ccc(C)c(Oc2c(C(F)(F)F)oc3c(CN4CCN(C)CC4)c(O)ccc3c2=O)c1`, the IFI is reported as 0%. `Cc1oc2c(c1C(=O)NCc1cccnc1)C(=O)c1ccccc1C2=O` gave an IFI of 17.5%. `O=C(CCl)Nc1ccc(CN2CCCCC2)cc1` gave an IFI of 0%. In the case of `CCc1c(C(C)S(=O)(=O)c2ccc(C)cc2)[nH]c(=O)n1-c1ccc(OC(F)(F)F)cc1` (stereo unspecified), the IFI is reported as 1.22%. For `Cc1cccc(-n2ccnc2SCC(=O)Nc2cc(C(F)(F)F)ccc2Cl)c1`, the IFI was 0%. For `O=C1C(=O)N(Cc2ccccc2[N+](=O)[O-])c2ccccc21`, the IFI was 0%. Work on `Oc1ccc(-c2cnccn2)cc1CNC1CCN(Cc2ccccc2)CC1` yielded an IFI of 5.56%. GNF-Pf-448, CHEMBL580641 showed an IFI of 30%. Compound `N=c1c2c(n(Cc3ccc(F)cc3)c3c1CCC3)CCC2` has an IFI of 4.54%. For `COc1ccc(Cl)cc1NC(=S)NNC(=O)c1cccnc1`, the IFI was 0%. Work on `CC(=O)Nc1ccc(N2C(=O)CSC2c2ccc(Br)cc2)cc1` (stereo unspecified) yielded an IFI of 0%. Work on `CCOc1ccc(NC(=O)c2ccc(F)c(S(=O)(=O)NC3CCCCCC3)c2)cc1` yielded an IFI of 0%. Compound `CCOC(=O)c1cc(-c2ccc(OC)cc2)n(CCC(=O)Nc2cccc(C(C)=O)c2)c1C` has an IFI of 0%. With `Cc1c(-c2ccc(Cl)cc2)[n+]2c(n1-c1ccccc1)SCCC2` the IFI was 7.69%. In the case of `O=C(c1ccc([N+](=O)[O-])cc1[N+](=O)[O-])N1CCCCC1`, the IFI is reported as 0%. `O=C(NCCN(CCNc1ccnc2cc(Cl)ccc12)CCNc1ccnc2cc(Cl)ccc12)C1CCC1` showed an IFI of 0%. For `O=C(NCCCN1CCCCC1)c1ccc2c(c1)sc1nc(-c3ccc(F)cc3)cn12`, the IFI was 0%. In the case of `CN(C)c1ccc(C2Nc3ccccc3NC3=C2C(=O)CC(C)(C)C3)cc1` (stereo unspecified), the IFI is reported as 5.59%. `c1ccc(-c2cc(N3CCC4(CC3)OCCO4)nc(-c3ccccn3)n2)nc1` showed an IFI of 7.69%. For `COc1ccc(C(=O)N(C)CCCNc2ccnc3cc(Cl)ccc23)cc1`, the IFI was 0.935%. In the case of `CCOC(=O)c1cc(-c2ccc(Cl)cc2Cl)[nH]c1N1CCN(c2ccc(OC)cc2)CC1`, the IFI is reported as 0.794%. Work on `CC(C)(C)CC(C)(C)Nc1c(-c2ccccc2OC(=O)c2cccc(C(F)(F)F)c2)nc2ccccn12` yielded an IFI of 3.74%. In the case of `O=C(COc1ccc(Cl)cc1)NCCCCNc1ccnc2cc(Cl)ccc12`, the IFI is reported as 2.97%. With `CCc1ccc(NC(=O)c2sc3nc4c(c(-c5ccco5)c3c2N)CCCC4)cc1` the IFI was 1.16%. With `CCOC(=O)C1=C(C)NC2=C(C(=O)CC(c3ccc(Cl)cc3)C2)C1c1ccc(F)cc1` (stereo unspecified) the IFI was 3.49%. `NC(Cc1ccccc1)C(=O)N1CCC(Nc2nsc3ccccc23)C1` (stereo unspecified) gave an IFI of 10.1%. `Cc1ccc2nc(C)cc(NCCCN(C)C)c2c1` showed an IFI of 2.33%. `CN(C)c1cc[n+](CC(=O)c2cccs2)cc1` showed an IFI of 3.23%. `COc1cc(/C=C2\CC/C(=C\c3cc(OC)c(OC)c(OC)c3)C2=O)cc(OC)c1OC` gave an IFI of 2.7%. Compound `CNc1ccccc1C(=O)N(C)CCc1ccccc1` has an IFI of 5.88%. `CC12CCC(C(=O)N(CC(O)Cn3c4ccc(Cl)cc4c4cc(Cl)ccc43)C1=O)C2(C)C` (stereo unspecified) gave an IFI of 2.03%. In the case of `CCN1CCN(CCN2C(=O)C3C(C(=O)Nc4ccc(C(C)C)cc4)C4C=CC3(O4)C2C(=O)NC2CCCCC2)CC1` (stereo unspecified), the IFI is reported as 0%. Compound `COc1cccc(-c2nc(CS(=O)(=O)CC(=O)N3CC(C)CC(C)C3)c(C)o2)c1` (stereo unspecified) has an IFI of 0%. In the case of `Cc1[nH]n(-c2ccccc2)c(=O)c1C(=O)CN(C(=O)c1ccc2c(c1)OCO2)C(C)C`, the IFI is reported as 0%. Work on `COc1ccc(/C=C(\NC(=O)c2ccccc2Br)C(=O)N2CC3CC(C2)c2cccc(=O)n2C3)cc1OC` (stereo unspecified) yielded an IFI of 0%. In the case of `CCN(CC)c1ccc(NC(=O)C2Cc3ccccc3CN2S(=O)(=O)c2ccc(F)cc2)cc1` (stereo unspecified), the IFI is reported as 0%. Work on `Nc1c(C(=O)Nc2ccc(Br)cc2)sc2nc3c(c(-c4cccs4)c12)CCC3` yielded an IFI of 2.33%. Work on `Cc1cccc(Nc2nc(NCc3ccco3)c3ccccc3n2)c1` yielded an IFI of 9.43%. `CC1N=C(c2ccc(NC(=O)c3ccc(C(=O)Nc4ccc(C5=NC(C)C(C)N5)cc4)cc3)cc2)NC1C` (stereo unspecified) showed an IFI of 8.11%. Work on `COc1ccccc1C(=O)N1CCN(Cc2ccc3ccccc3c2)CC1` yielded an IFI of 2.33%. In the case of `CCOC(=O)c1c(NC(=O)CSc2nc3c(c(=O)n(C)c(=O)n3C)n2C(C)C)sc2c1CCCC2`, the IFI is reported as 1.77%. In the case of `C(=NNc1nc2ccccc2[nH]1)c1ccccc1`, the IFI is reported as 0%. `N=c1c2c(n(Cc3ccc(Cl)cc3)c3c1CCC3)CCC2` showed an IFI of 7.14%. With `CN1c2ccccc2N(C)C1c1ccc2c(c1)OCO2` the IFI was 0.621%.
